Data reported in PubChem BioAssay AID463173 (ICCB-Longwood Screening Facility, Harvard Medical School, 2010).
The whole screen tested about 52,000 compounds, of which about 4,300 (8.3%) were called active. No stated cut-off is given here; in the data, active means survival mostly below about 52% (no sharp cut-off); inactive means mostly above about 56%. The list shows a part of the results.

system: DeltatarO mutant; experiment: S. aureus survival, RN4220 and DeltatarO strains – OD600, teichoic acid synthesis inhibitors, primary screen (AID 463173); settings: S. aureus RN4220 wild type/DeltatarO growth, OD600, 18 h, hits give low values, screened at 18.75 µg/mL (by protocol)

Row | SMILES | survival
1 | CCc1ccc(NC(=O)C2(c3cccs3)CCOCC2)cc1 | inactive: 73%
2 | Cc1oc2ncn(CC(C)C)c(=O)c2c1C(=O)N1CCN(c2ccccc2F)CC1 | inactive: 67%
3 | OC1CCNC(=S)N1c1ccccc1 (stereo unspecified) | inactive: 78%
4 | Cc1cc(C)c(NC(=O)CN(c2ccccc2)S(=O)(=O)N(C)C)c(C)c1 | inactive: 66%
5 | Cc1ccc(-c2noc(CN(C(=O)c3ccc(C(C)(C)C)cc3)C(C)C)n2)cc1 | active: -4%
6 | O=S(=O)(c1ccccc1)n1nc(-c2ccc(Cl)cc2)nc1NCc1ccc(F)cc1 | inactive: 53%
7 | COc1ccc(N2CCN(CC(=O)N(C)C)CC2)cc1 | inactive: 75%
8 | COc1cccc(NC(=O)Cn2c(=O)c3cccn3c3ccc(F)cc32)c1 | inactive: 76%
9 | CCOC(=O)c1ccccc1NC(=O)CN(c1cc(C(F)(F)F)ccc1Cl)S(C)(=O)=O | inactive: 65%
10 | CCCCSCCCNC(=O)c1cn(CC)c2ccc(S(=O)(=O)N(C)C3CCCCC3)cc2c1=O | active: 24%
11 | COc1cccc(-c2nc(SCC(=O)NCc3ccccc3)c3c(=O)n(C)c(=O)n(C)c3n2)c1 | inactive: 99%
12 | O=C(Cn1ccc2cc(S(=O)(=O)N3CCCCCC3)ccc21)NCCc1ccccc1Cl | inactive: 88%
13 | Cc1ccc(CCNC(=O)CCS(=O)(=O)c2ccc3c(c2)oc(=O)n3C)cc1 | inactive: 86%
14 | COc1cccc(N2CCN(S(=O)(=O)c3ccc(-c4cc(C(F)(F)F)on4)s3)CC2)c1 | inactive: 95%
15 | Cc1ccccc1-n1c(=O)c2ccccc2n(Cc2ccc(F)cc2)c1=O | inactive: 88%
16 | CCOC(=O)c1cnc2c(Cl)c(Cl)ccc2c1Nc1ccc(N(C)C)cc1 | inactive: 80%
17 | COC(=O)c1sc2cccc(F)c2c1S(=O)(=O)NCc1ccc(F)cc1 | inactive: 103%
18 | COc1ccc(C2CC(=O)N(Cc3cccc(C)c3)c3c2c(C)nn3-c2nc(C)cc(C)n2)c(OC)c1 (stereo unspecified) | inactive: 73%
19 | COc1ccc(-n2c(=O)c3c4c(sc3n(Cc3c(F)cccc3Cl)c2=O)CN(C(C)=O)CC4)cc1OC | inactive: 99%
20 | Fc1cccc(F)c1CSc1nc2ccccc2[nH]1 | inactive: 97%
21 | O=C(Nc1ccc(F)cc1)c1ncn(-c2ccccc2)n1 | inactive: 86%
22 | CCOc1ccccc1NC(=O)Cn1c(=O)n(-c2ccc(C)c(C)c2)c(=O)c2c(C)c(C(=O)N(C)C)sc21 | inactive: 106%
23 | CC(OC(=O)c1cccs1)C(=O)NCC1CCCO1 (stereo unspecified) | inactive: 85%

Row | SMILES | survival
24 | COc1cccc(-c2nnc(SCC(=O)N3CCc4ccccc43)o2)c1 | inactive: 70%
25 | CC(Nc1ncnc2c1cnn2-c1cccc(Cl)c1)c1ccccc1 (stereo unspecified) | inactive: 124%
26 | O=C(NCc1ccc(Cl)cc1)C(=O)NCC(c1cccnc1)N1CCN(c2ccccc2)CC1 (stereo unspecified) | inactive: 47%
27 | CCS(=O)(=O)c1c(S(=O)(=O)CC)c2cc(C(C)(C)C)ccn2c1C(=O)c1ccc(F)cc1 | inactive: 65%
28 | Cc1cc2c(cc1C)NC(CC(=O)Nc1cccc(C)c1C)C(=O)N2 (stereo unspecified) | inactive: 68%
29 | Cc1nc2ccccc2c2nc(N)nn12 | inactive: 85%
30 | COc1cc(Cl)c(C)cc1NC(=O)Cn1cnc2sc(C)c(S(=O)(=O)N3CCCCC3)c2c1=O | inactive: 128%
31 | CCOc1ccccc1NC(=O)Nc1ccccc1OCc1cc(=O)n2ccccc2n1 | inactive: 95%
32 | Cc1noc(NS(=O)(=O)c2ccc(NC(=O)COc3ccccc3Br)cc2)c1C | inactive: 53%
33 | CN(CC(=O)NCc1ccc(Cl)cc1)S(=O)(=O)c1ccc2c(c1)c(=O)n(C)c(=O)n2C | inactive: 83%
34 | Cc1ccc(CCNC(=O)c2ccc(CS(=O)(=O)Cc3ccc(Cl)cc3)o2)cc1 | inactive: 84%
35 | CCOC(=O)c1scc(-c2ccc(C)cc2)c1S(=O)(=O)Nc1cc(C)ccc1C | inactive: 81%
36 | COc1ccccc1N(CC(=O)NCCSc1ccccc1)S(=O)(=O)c1ccc(C)cc1 | inactive: 62%
37 | Cc1cn2c(=O)cc(COC(=O)COc3ccc(F)cc3)nc2s1 | inactive: 70%
38 | COc1cccc(-c2nn(C)c3sc(C(=O)N4CCN(c5cccc(C(F)(F)F)c5)CC4)cc23)c1 | inactive: 53%
39 | COc1ccc(OC)c(S(=O)(=O)NCCc2sc(C)nc2C)c1 | inactive: 65%
40 | CCCCNC(=O)c1ccc(-c2nc(CN3CCc4ccccc43)c(C)o2)cc1 | inactive: 117%
41 | Cc1cccc(COc2ccc(-c3cc(C(F)(F)F)n4nc(C)cc4n3)cc2)c1 | active: 9%
42 | CCc1ccc(-c2nc3cc(NC(=O)c4ccc(F)cc4)ccc3o2)cc1 | inactive: 83%
43 | Cc1ccc(Nc2c3c(nc4ccccc24)CCC3)cc1F | active: 2%
44 | CSc1nc2sc3c(c2c(=O)n1-c1ccc(C)cc1)CCCC3 | active: 39%
45 | COc1ccc(Cl)cc1NC(=O)N1CCC2(CC1)Oc1ccccc1C(=O)N2Cc1ccc(F)cc1 | inactive: 71%
46 | CCOC(=O)C1=C(CN(CC)Cc2ccccc2)NC(=O)NC1c1ccc(Cl)cc1 (stereo unspecified) | inactive: 64%

Row | SMILES | survival
47 | COc1ccc(NC(=O)N2CCC(n3c(C)nc4cccnc43)CC2)cc1OC | inactive: 88%
48 | Cc1ccc(OCCSc2nc3ccc(NC(=O)COc4ccc(C)cc4)cc3s2)cc1 | inactive: 91%
49 | CCOC(=O)c1cnn(-c2cccc(Cl)c2)c1C1CCN(C(=O)OC(C)(C)C)CC1 | active: 55%
50 | CC1CCc2c(sc3nnn(CC(=O)Nc4ccccc4Cl)c(=O)c23)C1 (stereo unspecified) | inactive: 71%
51 | Fc1ccc(NCc2nc3ccccc3n2CCOc2ccccc2Cl)cc1 | inactive: 91%
52 | CC1(C)Cc2c(sc(/N=C/N3CCCC3)c2C#N)C(C)(C)N1 | inactive: 108%
53 | COc1ccc(-n2c(=O)c3c(c4cc(OC)ccc4n3C)n(Cc3c(F)cccc3Cl)c2=O)cc1 | inactive: 86%
54 | CSc1ncc2c(n1)-c1ccccc1N(Cc1ccccc1C)S2(=O)=O | inactive: 94%
55 | COc1cccc(CCNC(=O)c2cnc3sc(N4CCCC4)nn3c2=O)c1 | inactive: 84%
56 | Cc1cccc(-n2c3nc(=O)n(C)c(=O)c-3cc3c(C)nn(-c4ccccc4)c32)c1C | inactive: 85%
57 | COC1(C(F)(F)F)NC(=O)N(c2ccc(F)cc2)C1=O (stereo unspecified) | inactive: 72%
58 | COc1ccc(-c2cc(C(N)=O)on2)c(OC)c1 | inactive: 99%
59 | COCCn1c(C)nnc1SCC1CCCO1 (stereo unspecified) | inactive: 80%
60 | COc1cc(Cl)c(S(=O)(=O)N2CCN(c3c(C)cccc3C)CC2)cc1Cl | inactive: 69%
61 | COc1ccc(CNc2nc(-c3ccccc3)nn2C(=O)c2ccccc2OC)cc1 | inactive: 102%
62 | CCOC(=O)c1cc2c(=O)n3ccccc3nc2n(CC2CCCO2)c1=NC(=O)c1ccc(OCC)cc1 (stereo unspecified) | inactive: 51%
63 | CN(Cc1ccccc1)C(=O)c1c[nH]c2ccc(S(=O)(=O)Nc3ccccc3F)cc2c1=O | inactive: 76%
64 | Cc1ccc(CCC(=O)Nc2ccc(C(C)C)cc2)o1 | inactive: 85%
65 | CCCn1cc(S(=O)(=O)c2ccc(OCC)cc2)c(=O)c2cc(C)ccc21 | inactive: 103%
66 | CCN(CC)c1ccc2c(COC(C)=O)cc(=O)oc2c1 | inactive: 82%
67 | O=C1NCN(c2ccccc2)C12CCN(c1nnnn1-c1ccccc1)CC2 | inactive: 88%
68 | CCCCC(=O)Nc1cc(-c2cn3cccnc3n2)ccc1C | inactive: 102%
69 | CCOc1ccc(-c2c(C)nn3c(C)c(C(=O)NC(C)c4ccccc4)cnc23)cc1OCC (stereo unspecified) | inactive: 60%

Row | SMILES | survival
70 | Cc1c(-c2cccc(NC(=O)Cc3ccccc3)c2)nc2ncccn12 | inactive: 77%
71 | O=C(CCSCc1ccccc1Cl)NCCc1ccccc1 | inactive: 71%
72 | O=C(Cn1ccn(-c2ccc(F)c(F)c2)c(=O)c1=O)NCc1ccccc1 | inactive: 62%
73 | CCN(C(=O)c1nn(C)c2c1CSc1ccccc1-2)c1cccc(C)c1 | inactive: 99%
74 | COc1ccc(NC(=O)Cn2nc(C)c3c(C)n(-c4ccccc4)nc3c2=O)cc1OC | inactive: 55%
75 | COc1cc(C(=O)OCc2cc(=O)n3ccsc3n2)cc(OC)c1OC | active: -2%
76 | COc1ccc(S(=O)(=O)NCC(c2ccco2)S(=O)(=O)c2cccs2)cc1OC (stereo unspecified) | inactive: 70%
77 | Oc1ccc(NC(=S)Nc2ccc(O)cc2)cc1 | inactive: 80%
78 | CCOc1cc(-c2cc(C(=O)O)c3c(-c4ccccc4)[nH]nc3n2)ccc1O | inactive: 53%
79 | Cc1cc(C=C(C#N)C#N)c(C)n1-c1ccc(N2CCOCC2)cc1 | inactive: 60%
80 | CCOc1cc(C(=O)N2CC(=O)Nc3ccc(F)cc3C2c2ccccc2)cc(OCC)c1OCC (stereo unspecified) | inactive: 78%
81 | CC(C)OCCCNC(=O)Cn1c(-c2cccs2)cc2cc(F)ccc21 | inactive: 83%
82 | COc1ccc(N2CCN(CCCNC(=O)c3sc4ncccc4c3-n3cccc3)CC2)cc1 | inactive: 101%
83 | CCn1c(=O)c(C(=O)Nc2nccs2)c(O)c2ccccc21 | inactive: 100%
84 | COc1cccc(-c2noc(COc3cccc(C)c3C)n2)c1 | inactive: 84%
85 | COC(=O)c1cn(-c2ccccc2)nc1C(=O)OC | inactive: 96%
86 | CCOc1ccc(CCNC(=O)C2CC(=O)N(CCc3ccc(OC)c(OC)c3)C2)cc1OCC (stereo unspecified) | inactive: 91%
87 | CCOC(=O)c1c(NC(=O)COc2ccc(OC)cc2)sc(C(=O)N(CC)CC)c1C | active: 3%
88 | CCCCN(CC)CCNC(=O)c1nn(-c2ccc(OC)cc2)c(=O)c2c1c1ccccc1n2C | inactive: 96%
89 | N#C/C(=C\c1ccccc1)c1nc(-c2cc3c(ccc4ccccc43)oc2=O)cs1 | inactive: 120%
90 | CC1CCN(C(=O)CS(=O)(=O)Cc2ccccc2)CC1 | inactive: 80%
91 | CCCC(=O)OCc1cnc(C)c2oc(=O)c(C(=O)Nc3ccc(F)cc3C)cc12 | inactive: 88%
